Here are results for 2 molecules from publication PMC545490, “Mapping and mutation of the conserved DNA polymerase interaction motif (DPIM) located in the C-terminal domain of fission yeast DNA polymerase δ subunit Cdc27” (BMC Molecular Biology, 2004).

Protein sequences, listed by entry. Tags and fused reporters are not part of them. Residues count along the entry.
UniProt P09884, residues 291-540: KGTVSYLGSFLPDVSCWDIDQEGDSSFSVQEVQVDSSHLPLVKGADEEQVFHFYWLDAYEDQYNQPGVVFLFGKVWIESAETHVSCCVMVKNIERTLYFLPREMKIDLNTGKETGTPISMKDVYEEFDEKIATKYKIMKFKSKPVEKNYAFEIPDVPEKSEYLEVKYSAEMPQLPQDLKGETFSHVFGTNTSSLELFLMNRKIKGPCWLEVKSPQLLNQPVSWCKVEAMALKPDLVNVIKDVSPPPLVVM

The target in test [1] is LexA fusion of amino acids 291–540 of the human Pol α catalytic subunit (human) (UniProt P09884). The experiment in a line: two-hybrid; Gal4 AD prey (pACT2) and LexA bait (pBTM116) in S. cerevisiae lexA op-lacZ strain CTY10-5d; β-galactosidase activity in Miller units.
For test [2], the target named is T1, LexA-Pol1(278–507) (S. pombe) (UniProt P28040).
T1 sequence: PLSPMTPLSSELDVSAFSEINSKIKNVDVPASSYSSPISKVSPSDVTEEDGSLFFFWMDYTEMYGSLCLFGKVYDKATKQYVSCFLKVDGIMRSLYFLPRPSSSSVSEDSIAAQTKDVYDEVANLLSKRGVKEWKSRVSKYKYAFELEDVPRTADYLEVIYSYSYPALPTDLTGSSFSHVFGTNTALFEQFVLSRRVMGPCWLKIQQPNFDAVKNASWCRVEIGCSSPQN
The test is described as above.

Test [3] has as its target T2, LexA-Pol1(278–477) (S. pombe) (UniProt P28040).
T2 sequence: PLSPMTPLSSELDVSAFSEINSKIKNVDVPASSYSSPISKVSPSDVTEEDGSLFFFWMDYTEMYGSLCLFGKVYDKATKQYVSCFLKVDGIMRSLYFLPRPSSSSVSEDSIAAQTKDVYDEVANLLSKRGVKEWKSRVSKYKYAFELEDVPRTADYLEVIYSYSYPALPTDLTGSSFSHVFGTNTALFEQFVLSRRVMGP
Described as above.

For test [4], the target named is T3, LexA-Pol1(278–497) (S. pombe) (UniProt P28040).
T3 sequence: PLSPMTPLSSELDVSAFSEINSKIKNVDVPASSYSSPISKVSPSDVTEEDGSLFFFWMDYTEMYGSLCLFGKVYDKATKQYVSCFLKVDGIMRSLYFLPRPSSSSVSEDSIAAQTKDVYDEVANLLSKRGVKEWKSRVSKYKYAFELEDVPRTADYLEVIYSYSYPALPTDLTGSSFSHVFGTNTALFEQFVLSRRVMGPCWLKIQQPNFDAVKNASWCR
The test is described as above.

Test [5] concerns the target T4, LexA-Pol1(278–487) (S. pombe) (UniProt P28040).
T4 sequence: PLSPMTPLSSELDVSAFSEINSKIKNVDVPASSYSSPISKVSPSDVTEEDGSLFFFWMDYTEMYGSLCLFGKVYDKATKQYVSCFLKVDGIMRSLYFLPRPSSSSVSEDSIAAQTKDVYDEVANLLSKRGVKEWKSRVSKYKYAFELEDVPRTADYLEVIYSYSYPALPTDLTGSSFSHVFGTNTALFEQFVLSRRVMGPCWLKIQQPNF
The test is described as above.

The next test deals with T5, LexA-Pol1-278-527 (S. pombe, UniProt P28040 278-527).
T5 construct: Pol1, catalytic subunit of DNA polymerase α, S. pombe, amino acids 278–527; source: yeast two-hybrid fusion (pBTM116, S. cerevisiae CTY10-5d)
T5 sequence (looked up): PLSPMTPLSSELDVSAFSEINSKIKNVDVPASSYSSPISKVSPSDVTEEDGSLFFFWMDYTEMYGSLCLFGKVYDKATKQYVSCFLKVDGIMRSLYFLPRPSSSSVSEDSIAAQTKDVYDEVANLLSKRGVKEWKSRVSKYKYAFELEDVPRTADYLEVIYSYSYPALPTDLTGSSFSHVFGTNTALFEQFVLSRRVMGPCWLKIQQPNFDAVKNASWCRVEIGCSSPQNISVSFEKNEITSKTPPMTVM
Described as above.

A further test concerns the target T6, peptide SpA (S. pombe).
T6 sequence (peptide, biotin on the N-terminus (biotin-SGSG)): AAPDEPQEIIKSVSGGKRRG
As to the kind of experiment: pull-down; biotin-SGSG peptides on Streptavidin-agarose beads; 100 μg fission yeast protein extract, 4°C, 1 hr; washes with NP40 buffer; Pol1-13Myc detected with anti-Myc mAb 9E10; only the target purified.

Another test addresses T7, peptide HsC (human).
T7 sequence (peptide, biotin on the N-terminus (biotin-SGSG)): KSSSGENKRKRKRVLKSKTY
Described as above.

For the next test, the target named is T8, peptide SpD (S. pombe).
T8 sequence (peptide, biotin on the N-terminus (biotin-SGSG)): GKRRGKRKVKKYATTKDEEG
The test is described as above.

A further test deals with T9, peptide HsA (human).
T9 sequence (peptide, biotin on the N-terminus (biotin-SGSG)): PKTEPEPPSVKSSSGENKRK
Described as above.

The next test concerns the target T10, peptide SpB (S. pombe).
T10 sequence (peptide, biotin on the N-terminus (biotin-SGSG)): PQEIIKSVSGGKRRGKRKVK
Described as above.

The target in the next test is T11, peptide HsE (human).
T11 sequence (peptide, biotin on the N-terminus (biotin-SGSG)): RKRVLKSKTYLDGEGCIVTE
The description is as above.

A further test concerns the target T12, peptide HsB (human).
T12 sequence (peptide, biotin on the N-terminus (biotin-SGSG)): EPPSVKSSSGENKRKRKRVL
The description is as above.

The next test deals with T13, peptide HsD (human).
T13 sequence (peptide, biotin on the N-terminus (biotin-SGSG)): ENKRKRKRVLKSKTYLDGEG
The test is described as above.

A further test addresses T14, peptide SpE (S. pombe).
T14 sequence (peptide, biotin on the N-terminus (biotin-SGSG)): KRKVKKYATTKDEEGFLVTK
Described as above.

In a further test the target is T15, peptide SpC (S. pombe).
T15 sequence (peptide, biotin on the N-terminus (biotin-SGSG)): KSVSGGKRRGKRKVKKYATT
Described as above.

These are yes or no findings as the source states them, for the method shown. For some of these results: Binding seen in cells or lysates may run through a third protein. Some results given as binding are weak or reduced against the parent protein; the word gives no strength. Sequences can lack the tags named with a protein.

B1: Full-length Cdc27 fused to the activation domain (AD) of the yeast Gal4 protein (protein, UniProt P30261 1-372)
chain: MEEWRNFLDIKVINESSLVTVDNLSLQLDISSEKAQEYLNMFYQGNDFLYPIYLIHGQPIDDEINLEIDEESQPISNFPVLQYILCDKSSLQEKQSRLKSGYKTVIFALSSAPLSDFDELLPAVYEIREKDVLYKKEDADKYGFIFNENSVPRVLKKAPSTHSPQLSVPSKTSTIDKTDTRSTEKTKGKDIFSNARNQKGNSSRKNKKAPLENHKEKEPLLPKEEKLSEQAKRERDDLKNIMQLEDESVSTTSVHDSEDDNLDSNNFQLEIGTEAKSAAPDEPQEIIKSVSGGKRRGKRKVKKYATTKDEEGFLVTKEEEVWESFSEDENISTGTSNVVRNKPTTVNIATKKKNTAQSKPQQKSIMSFFGKK
Consider B1, for which the binding entry in test [1] is recorded as “no binding”; in test [2], “no binding”; in test [3], “no binding”; in test [4] it was “no binding”; in test [5], “no binding”; in the test with LexA-Pol1-278-527, “binds”.

B2: Pol1-13Myc (protein, UniProt P28040 1-1405)
chain: MRKRNAGIKPSQRFAELRALRQAGKTRASTYESKENEELYDNVSEEEYRKIVRQRLDEDDFVVDDNGAGYVDNGYDEWDQSHYSDEDDENEKGSSGRKRKKSKNVLAEPNQQIGAFFKANAIQPASRIANRKNNEKEDEFMAEILGSIDQDIPERLSTKKGNRSHTTSNAKRRSQKAASSISTTNVVSSDPKKYIPETVPSTPQPASSLPIPSSPPAALETEENVDSQPMELDEPELPVGSDAPIIDVEESIAMKPLMSHDQVDDTASLSKATISQQPLSPMTPLSSELDVSAFSEINSKIKNVDVPASSYSSPISKVSPSDVTEEDGSLFFFWMDYTEMYGSLCLFGKVYDKATKQYVSCFLKVDGIMRSLYFLPRPSSSSVSEDSIAAQTKDVYDEVANLLSKRGVKEWKSRVSKYKYAFELEDVPRTADYLEVIYSYSYPALPTDLTGSSFSHVFGTNTALFEQFVLSRRVMGPCWLKIQQPNFDAVKNASWCRVEIGCSSPQNISVSFEKNEITSKTPPMTVMSLAFRTLINKEQNKQEVVMISARIFENVDIEKGLPANDMPSYSFSLIRPLKQIFPNGFEKLARQHKSSIFCERSEVSLLNNFLNKVRTYDPDVYFGHDFEMCYSVLLSRLKERKIHNWSSIGRLRRSEWPRSFNRSSQQFVEKQIIAGRLMCDLSNDFGRSMIKAQSWSLSEIVLKELDIKRQDINQEKALQSWTDTAHGLLDYLVHCEIDTFFIAAVAFKIQMLQLSKNLTNIAGNSWARTLTGTRAERNEYILLHEFKKNGYIVPDKQQSIRRHAEAFGAEDGLQEESLGKKKDKYKGGLVFEPQKGLYETCILVMDFNSLYPSIIQEYNICFTTVDRSPSNSDSDDQIPDTPSASANQGIFPRLIANLVERRRQIKGLLKDNSATPTQRLQWDIQQQALKLTANSMYGCLGYTKSRFYARPLAVLITYKGREALMNTKELADQMGLQVIYGDTDSVMLNTNVTDKNHALRIGNEFKEKVNERYSKLEIDIDNVYQRMLLHAKKKYAALQLDSQGKPNLDVKGLDMKRREFCTLAKEASKFCLDQILSGELTETVIENIHSYLMDFSEKMRNGKFPANKFIIFNRLGKNPEDYPNGKTMPFVQVALKKKARGENVRVGDVIPFIIAGSDADGHPADRAYSPQEIMNTNSTLVIDYNYYLSHQILPPIERVIAPIEGTNRARLAECLGLDARKYYSHETSESSAFQRYESTLTDDQCFINVSPLLLKCPSCNATSFSLRSVKSLKETLYANTVECDCGYEYSDFTIILQFSSQLRDFINLYYEGILVCDDSSCGNRTRQMSVYGKRCCNKSCRGSVHFEYNDEQLYNQIKFLLKAVQTTTGATRNGIIRCNAINKNISRIMNKNAREFVDMGLIFSS
On to B2, for which the binding result with peptide SpA (S. pombe) is “no binding”; in the test with peptide HsC (human), “binds”; with peptide SpD (S. pombe), “binds”; with peptide HsA (human), “no binding”; with peptide SpB (S. pombe), “binds”; with peptide HsE (human), “no binding”. Also, the binding entry is “binds” in the test with peptide HsB (human), “binds” with peptide HsD (human), “no binding” with peptide SpE (S. pombe) and “binds” with peptide SpC (S. pombe).
